Among the data in PubChem BioAssay AID488969 (Vanderbilt High Throughput Screening Facility, 2010) are z-score values, retold here.

Over roughly 110,000 compounds, “z-score” has its median near -0.1; the highest 2% begin near 2. This is one part of the list. The source made the active and inactive calls.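 How the source made its calls: active means z-score in the third read window above 3 or below -3; inactive means the rest.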

This test concerns the target Metabotropic glutamate receptor 8 (Rattus norvegicus) (UniProt P70579). Description: mGluR8 Gi/Go-coupled signaling modulation – cell-based, rat, thallium flux, HTS, primary screen (AID 488969). As to conditions: HEK293 rat mGluR8, GIRK (G protein-gated inwardly rectifying potassium channel) thallium flux, FluoZin2; at 10 µM; stronger effect = higher value; submaximal glutamate (EC20) added with thallium.
Chain of UniProt P70579 (P70579 whole entry, looked up): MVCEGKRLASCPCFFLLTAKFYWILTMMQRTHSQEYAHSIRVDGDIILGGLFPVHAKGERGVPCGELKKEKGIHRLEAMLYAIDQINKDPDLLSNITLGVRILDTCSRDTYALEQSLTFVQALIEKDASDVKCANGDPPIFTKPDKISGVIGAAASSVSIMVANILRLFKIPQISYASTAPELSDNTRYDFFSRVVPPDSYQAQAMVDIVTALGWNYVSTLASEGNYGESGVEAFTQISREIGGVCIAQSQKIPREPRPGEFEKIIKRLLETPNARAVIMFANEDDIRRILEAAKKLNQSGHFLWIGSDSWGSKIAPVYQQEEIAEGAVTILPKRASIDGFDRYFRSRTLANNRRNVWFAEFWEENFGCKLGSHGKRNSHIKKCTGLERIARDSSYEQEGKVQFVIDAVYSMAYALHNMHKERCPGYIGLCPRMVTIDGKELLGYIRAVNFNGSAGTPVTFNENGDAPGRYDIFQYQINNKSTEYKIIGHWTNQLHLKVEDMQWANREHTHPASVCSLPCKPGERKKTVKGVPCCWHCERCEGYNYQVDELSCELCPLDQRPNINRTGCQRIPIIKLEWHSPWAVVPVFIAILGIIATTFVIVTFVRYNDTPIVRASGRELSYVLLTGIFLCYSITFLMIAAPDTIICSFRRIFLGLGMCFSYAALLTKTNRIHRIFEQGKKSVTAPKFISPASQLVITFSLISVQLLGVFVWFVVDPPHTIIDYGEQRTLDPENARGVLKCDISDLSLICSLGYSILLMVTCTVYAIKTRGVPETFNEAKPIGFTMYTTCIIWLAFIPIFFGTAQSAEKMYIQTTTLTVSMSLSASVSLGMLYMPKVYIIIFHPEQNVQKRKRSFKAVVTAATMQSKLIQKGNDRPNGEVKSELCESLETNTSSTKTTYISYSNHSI
The compound `Cc1ccc2c(c1)N(C(=O)NC1CCCCC1)C(C)(C)CC2C` (stereo not given) showed a z-score of 0.222.

For `Cc1ccc([N+](=O)[O-])cc1-c1ccc(/C=N\n2nnnc2N)o1`, the z-score is -0.0548.

In the case of `Cc1ccc(C(C(=O)NCc2ccco2)N(C(=O)CNC(=O)c2cccs2)c2c(C)cccc2C)cc1` (stereo not given), the z-score worked out at 0.069.

Take `Cc1cccn2cc(-c3ccccc3)nc12`: the z-score was found to be 0.976.

`FC(F)(F)c1cccc(-c2nnc3ccc(C(F)(F)F)cn23)c1` yielded a z-score of 0.312.

Take `COC(=O)c1cn(NC(=O)c2cccc(N(C)C)c2)c(=O)c2ccccc12`: the z-score is -1.54.

As to `COCCNC(=O)Cn1ncc2ccsc2c1=O`, the z-score came to 2.25.

The compound `Cc1ccc(S(=O)(=O)N2CCC(O)(c3cccnc3)CC2)cc1` displayed a z-score of -0.435.

Consider `O=C(c1cccs1)N1CCCC(c2ccccc2)C1` (stereo not given), for which the z-score was -0.536.

`COc1ccc2nc(C(F)(F)C(F)(F)F)c(C#N)c(N)c2c1` showed a z-score of -0.334.

For the compound `Cc1ccc(C(=O)CSc2nnc(-c3ccccc3N)n2C)cc1C`, the z-score was -0.127.

`COc1cc2c(cc1NC(=O)COC(=O)C1CC(=O)N(Cc3ccco3)C1)oc1ccccc12` (stereo not given) registered a z-score of -1.09.

On to `CC(C)(C)C(=O)Nc1cccc(C(=O)Nc2cc(C(=O)O)cc(C(=O)O)c2)c1`, for which the z-score was -0.111.

Take `CC1CN(C(=O)c2nn(C)cc2[N+](=O)[O-])CC(C)O1` (stereo not given): the z-score is -0.227.

`Cc1[nH]c2ccccc2c1C1C(c2ccccc2)=NN=C(C(C)C)N1O` (stereo not given) yielded a z-score of -0.181.

`COc1ccc(Cl)cc1NC(=O)CC(C)=O` came in with a z-score of 1.03.

Turning to `CCOC(=O)c1cc2c(ccn2C)n1CC(=O)N1CCN(c2cccc(C(F)(F)F)c2)CC1`, the z-score was found to be 0.889.

`CCOC(=O)Cn1c(=NC(=O)c2cccs2)sc2cc(C(=O)OC)ccc21` yielded a z-score of -0.0251.

Take `O=c1cc(CN2CCN(c3ccc(F)cc3)CC2)c2cc3c(cc2o1)CCCC3`: the z-score came out at 0.252.

The compound `COC(=O)C1=C(NC(=O)c2ccc(C)cc2)CCS1` displayed a z-score of -0.18.

Turning to `CCC(C)N(C)Cc1cccc(C2(O)CCN(S(=O)(=O)c3ccc(F)cc3)CC2)c1` (stereo not given), the z-score was -0.276.

In the case of `CC(C)N(C(=O)COC(=O)CNC(=O)c1ccc(Br)cc1)c1ccccc1`, the z-score is -0.48.

Take `COc1ccc(N2C(=O)CCC(C(=O)O)C2c2ccc(OC)c(OC)c2)cc1` (stereo not given): the z-score is -0.179.

In turn, `C=CCNC(=O)C(=O)c1cccn1-c1ccsc1C(=O)OC` gave a z-score of -0.198.

The compound `COc1ccccc1/C=C/C=N/n1c(-c2ccc(C)cc2)n[nH]c1=S` registered a z-score of -0.218.

With `COCCN1C(=O)c2oc3cc(C)c(C)cc3c(=O)c2C1c1ccc(O)cc1` (stereo not given), the z-score is -1.06.

Turning to `O=c1c2cnn(-c3ccccc3)c2ncn1Cc1cccnc1`, the z-score came to 0.48.

The compound `N#Cc1ccc(-c2ccc(OCC(=O)NCCc3ccccc3)cc2)cc1` came in with a z-score of -0.352.

Compound `CCOC(=O)C(C)c1n[nH]c(=O)c2ccccc12` (stereo not given) had a z-score of 0.11.

In the case of `CC(C)C12CN3CC(C(C)C)(CN(C1)C3c1ccccc1)C2O` (stereo not given), the z-score was -0.338.

`COc1ccc(/C=C/C(=O)c2ccc(O)cc2)cc1COc1ccc(F)cc1` showed a z-score of -0.0504.

In turn, `Nn1c(Cc2cccc3ccccc23)nnc1SC1CCOC1=O` (stereo not given) showed a z-score of 0.259.

Turning to `CCOC(=O)c1ccc(NC(=O)CCc2nc(-c3cccc(C)c3)no2)cc1`, the z-score was 0.0774.

The compound `O=C(Cn1ncc2c1-c1ccccc1OC2)Nc1cccc(Cl)c1` came in with a z-score of 1.41.

In turn, `C=CCn1c(Cc2cccs2)nnc1SCC(=O)Nc1ccc(OC)cc1` showed a z-score of 0.00163.

`Cc1onc(-c2c(F)cccc2Cl)c1C(=O)NC1CCSC1=O` (stereo not given) registered a z-score of -0.0578.

`COc1ccc(OCC(=O)N/N=C(/C)Cc2ccccc2)cc1` displayed a z-score of -0.229.

In turn, `Cc1cccc(C)c1-n1nnnc1S(=O)(=O)Cc1ccccc1Cl` came in with a z-score of -0.298.

With `COC(=O)c1ccc(NC(=O)c2cc3sccc3n2C)cc1`, the z-score was -1.08.

Consider `O=[N+]([O-])c1ccc(O)c(-c2nc(-c3ccccc3)c(-c3cccs3)[nH]2)c1`, for which the z-score was -0.0941.

`C=CCNC(=O)c1ccc(C)c(Br)c1` had a z-score of -0.134.

The compound `O=C(NC1CCCC1)C(c1cccs1)N(C(=O)c1ccno1)c1ccccc1` (stereo not given) yielded a z-score of 0.711.

Compound `CC1(O)c2ccccc2C(=O)N1CCc1ccccc1F` (stereo not given) yielded a z-score of -0.1.

As to `COc1ccc(-c2cc(C(F)(F)F)nc(SCC(N)=O)n2)cc1`, the z-score came out at 0.362.

Turning to `Cc1cc(SCC#N)n2nc(C)c(-c3ccc(Cl)cc3)c2n1`, the z-score is 0.479.

For the compound `CCOc1ccc(N2Cc3ncccc3C2=O)cc1`, the z-score is -0.0683.

`CCCC(C(=O)NCc1ccco1)N(C(=O)CNS(=O)(=O)c1ccc(Cl)cc1)C1CCCC1` (stereo not given) returned a z-score of 0.651.

As for `O=C(Oc1ccc(Cl)cc1)N1CCCCC1`, the z-score was determined as 0.187.

`Cc1cccc(NC(=S)NNC(=O)CCn2nc(C)c([N+](=O)[O-])c2C)c1` had a z-score of 0.0146.

`Cc1ccc(C2N(c3cccc(Cl)c3)C(=O)C3CCCN32)o1` (stereo not given) showed a z-score of -0.548.

For `COc1ccc(F)cc1S(=O)(=O)Nc1ccc2c(c1)OCO2`, the z-score was -0.335.

The compound `COc1cccc(-c2csc(N3CCN(C(=S)Nc4ccccc4Cl)CC3)n2)c1` registered a z-score of -0.399.

The compound `Fc1ccc(CSc2nc3ncc(Br)cc3[nH]2)cc1` yielded a z-score of -1.27.

In turn, `COc1ccc(CNC(=O)Oc2ccccc2)cc1Cl` showed a z-score of -0.525.

`COc1ccc(C2C(C(=O)OC(C)C)=C(C)N=c3s/c(=C\c4cccs4)c(=O)n32)cc1` (stereo not given) came in with a z-score of 1.04.

`O=C(NCCc1c[nH]c2ccccc12)c1cc(S(=O)(=O)N2CCCCC2)ccc1N1CCOCC1` returned a z-score of -0.77.

In turn, `CCC(=O)Nc1nc2ccccc2n1CCN(CC)CC` came in with a z-score of -0.0953.

In turn, `CCOCc1nnc(NC(=O)c2cccs2)s1` had a z-score of 0.125.

`C=C(C)c1cccc(C(C)(C)NC(=O)N2CCC(C)CC2)c1` displayed a z-score of -0.352.

Turning to `CC1CCCC(C)N1C(=O)COC(=O)C(Cc1ccccc1)NC(=O)c1cccs1` (stereo not given), the z-score was -0.188.

With `O=C(c1ccc(-c2ccccc2)cc1)N1CCN(c2ncccn2)CC1`, the z-score is active: 3.97.

Take `CC(=O)c1ccc(N2Cc3ccccc3C2=NC(=O)c2cccs2)cc1`: the z-score was -0.148.

Regarding `CCOC(=O)C1CCN(CC(=O)Nc2c(C(=O)OC)[nH]c3ccc(Cl)cc23)CC1`, the z-score is -1.02.

`COc1ccc(-c2csc(Cc3nnc(N4CCOCC4)n3-c3ccccc3)n2)cc1OC` yielded a z-score of -0.0135.

The compound `Cc1sc2nc(SCC(=O)C(C)(C)C)n(Cc3ccco3)c(=O)c2c1C` gave a z-score of -0.377.

`CCc1c(C)nc(Nc2nc(C)c3ccc(OC)cc3n2)[nH]c1=O` showed a z-score of -0.8.

`CCCCCC(=O)Nc1nc(C)c(-c2csc(Nc3ccccc3OCC)n2)s1`: the z-score was -0.324.

`CCN1C(=O)c2cccc3c(S(=O)(=O)Nc4c(C)n(C)n(-c5ccccc5)c4=O)ccc1c23` displayed a z-score of -1.35.

The compound `CC(C)C(=O)N1CCN(c2ccc(NC(=O)c3ccc(Br)o3)cc2)CC1` returned a z-score of -0.133.

`C=C(Cl)COc1ccc2c(C)cc(=O)oc2c1` registered a z-score of 0.615.
